Results published in publication PMC4336329 (PLoS ONE, 2015).
In all, about 310,000 compounds went through this assay and about 14,000 (4.5%) showed an effect of 50% or more. The effect is printed as a negative number. The list shows a part of the results.

These compounds were tested against human ether-à-go-go-related gene (hERG) potassium channel (human, UniProt Q12809) (assay: primary screen, population patch clamp on CHO cells stably expressing hERG).
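Also: peak tail current of the secondary pulse compared with the same well before compound.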

Sequence of human ether-à-go-go-related gene (hERG) potassium channel (Q12809 whole entry, looked up): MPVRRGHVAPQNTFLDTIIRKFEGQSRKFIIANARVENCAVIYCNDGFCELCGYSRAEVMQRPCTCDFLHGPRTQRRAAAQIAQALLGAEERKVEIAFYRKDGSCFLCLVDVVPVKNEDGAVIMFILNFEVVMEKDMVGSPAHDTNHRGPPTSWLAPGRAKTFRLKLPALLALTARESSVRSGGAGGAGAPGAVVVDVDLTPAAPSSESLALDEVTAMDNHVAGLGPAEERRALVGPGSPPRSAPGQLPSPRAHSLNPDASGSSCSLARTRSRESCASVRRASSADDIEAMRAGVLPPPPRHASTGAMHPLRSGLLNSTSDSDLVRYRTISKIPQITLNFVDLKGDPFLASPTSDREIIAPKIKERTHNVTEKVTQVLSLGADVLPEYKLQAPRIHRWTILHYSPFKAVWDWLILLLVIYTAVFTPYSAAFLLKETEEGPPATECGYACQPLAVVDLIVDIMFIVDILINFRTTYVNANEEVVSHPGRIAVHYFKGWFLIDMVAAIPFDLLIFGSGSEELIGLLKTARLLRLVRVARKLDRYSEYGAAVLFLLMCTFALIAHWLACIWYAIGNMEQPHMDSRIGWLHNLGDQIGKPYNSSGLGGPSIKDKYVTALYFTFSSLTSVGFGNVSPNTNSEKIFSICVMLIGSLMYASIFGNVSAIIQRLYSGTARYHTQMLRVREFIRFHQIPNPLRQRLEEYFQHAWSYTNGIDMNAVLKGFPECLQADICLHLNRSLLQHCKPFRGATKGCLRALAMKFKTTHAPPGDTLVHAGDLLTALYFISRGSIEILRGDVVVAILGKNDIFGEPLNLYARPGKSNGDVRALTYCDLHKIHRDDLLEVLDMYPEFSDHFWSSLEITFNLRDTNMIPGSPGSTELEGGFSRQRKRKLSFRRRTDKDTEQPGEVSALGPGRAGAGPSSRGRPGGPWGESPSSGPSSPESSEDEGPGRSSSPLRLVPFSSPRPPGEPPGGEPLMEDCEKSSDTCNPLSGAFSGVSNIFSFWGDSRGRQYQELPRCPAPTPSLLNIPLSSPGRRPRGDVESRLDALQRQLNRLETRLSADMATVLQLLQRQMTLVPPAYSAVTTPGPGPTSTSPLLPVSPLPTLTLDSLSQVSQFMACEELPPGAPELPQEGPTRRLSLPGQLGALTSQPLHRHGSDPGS

Structure (SMILES)	hERG current change (%, negative = inhibition) at 10uM [%]
CCOC(=O)c1c(S(=O)(=O)NCC(=O)Nc2cccc(C)n2)c(C)n(C)c1C	18.3
CCN(CC)C(=O)c1ccc(C)c(Br)c1	-0.776
COc1ccc(C/C(=N\OC(C)=O)c2ccc(OC)cc2)cc1	-1.98
CCOc1ccc(CC(=NCCO)C2=C(O)CC(C)(C)CC2=O)cc1OCC	1.83
CC1CN(CCCCOc2ccc3ccccc3c2)CC(C)O1 (stereo not drawn)	-7.6
O=c1[nH]c(=O)n(-c2ccc(F)cc2)c(O)c1/C=C1\C=Nc2ccccc21	6.63
CCOC(=O)c1c(C)[nH]c(C(=O)OCC(=O)c2ccc3c(c2)NC(=O)CO3)c1C	5.51
N#CCCn1cc(C(=O)Nc2ccc([N+](=O)[O-])cc2)c(-c2cc3ccccc3o2)n1	24.7
CC1CN(CN2C(=O)c3ccccc3C2=O)CC(C)O1 (stereo not drawn)	-3.94
COc1ccc(CNCCc2ccc(Cl)cc2)c(OC)c1OC.O=C(O)C(=O)O	-51.6
COc1cccc(CNCC(=O)Nc2ccc(N3CCOCC3)cc2)c1.O=C(O)C(=O)O	-1.05
Br.O=S1(=O)C[C@@H]2N=C(N/N=C/c3ccccc3)S[C@@H]2C1	-5.87
CC(C)N1CCC(N2CCN(CCCc3ccccc3)CC2CCO)CC1 (stereo not drawn)	10.1
Cc1nc2cc(NC(=O)NCc3ccccc3)ccc2o1	14.6
COc1ccc2cc3cc(C(=O)N4CCN(C5CCCCC5)CC4)oc3nc2c1	6.25
Cc1ccccc1-n1ncc2c1CC(C)(C)CC2NC(=O)C1CCC1 (stereo not drawn)	-12.2
O=C(O)Cc1sc(Nc2cccc3ccccc23)nc1-c1ccc(Cl)cc1	22.5
Cc1cnc(C(=O)OCC(=O)NC2CCCCC2)cn1	7.81
O=C(COc1ccc(F)cc1)Nc1nnc(C2CCCCC2)s1	20.4
O=C(CSc1nc2ccccc2s1)Nc1ccc(C(=O)O)cc1	2.96
COc1ccccc1C(=O)NC(=O)COC(=O)CCOc1ccc(C)cc1	17.3
CC(C)c1cc(-c2cc(-c3ccc(Cl)cc3)on2)nc(NCC2CC2)n1	12.9

Structure (SMILES)	hERG current change (%, negative = inhibition) at 10uM [%]
Cc1cccc(C(=O)N/C(=C\c2ccco2)C(=O)N2CCCCCC2)c1	-11.2
Cc1ccc([N+](=O)[O-])cc1S(=O)(=O)N(C(=O)c1ccncc1)c1ccc2oc3c(c2c1)CCCC3	-1.37
O=C1c2cccc3cc([N+](=O)[O-])cc(c23)C(=O)N1CC1CCCO1 (stereo not drawn)	-8.56
CCn1c(=O)cc(OCC(=O)Nc2cccc(C)n2)c2ccccc21	-14.1
COCCn1cnc2c1c(=O)n(Cc1ccc(Br)cc1)c(=O)n2Cc1ccccc1	1.08
CN(CC(=O)Nc1cc(S(=O)(=O)N2CCCC2)ccc1Cl)Cc1ccc2c(c1)OCO2	-3.25
COc1cccc(-c2nc(-c3ccc4c(c3)NC(=O)CO4)cs2)c1	-6.15
CCCCN(CCCC)c1ccc(C(=O)c2ccccc2C(=O)O)c(O)c1	-75.2
Cc1c(Cl)cccc1NC(=O)NC1CCCCC1	18.3
CCOCCc1c(O)nc(SCC)[nH]c1=O	2.8
CSc1ccccc1NC(=O)COc1ccccc1C	6.39
CCOC(=O)C1=NOC(Cn2cc(C#N)c(=O)n(C)c2=O)C1 (stereo not drawn)	13.5
CC(COc1ccccc1)N(CCCl)Cc1ccccc1.Cl (stereo not drawn)	-1.35
O=C(Nc1cccc(Cl)c1)Nc1ccccc1C(=O)O	-5.74
CN1CCN(C(=O)c2cnn3c(C(F)(F)F)cc(-c4cccs4)nc23)CC1	-12.3
O=C(Cn1cncn1)N/N=C/c1cccnc1	18.4
CCCc1cc(N2CCCC(C(=O)Nc3ccc(OC)cc3OC)C2)n2ncnc2n1 (stereo not drawn)	-51.4
O=C(COC(=O)c1cc([N+](=O)[O-])ccc1N1CCOCC1)NCCc1ccccc1	-45.4
Cc1cc(N2CCOCC2)nc(SCC(=O)c2ccccc2)n1	-8.29
CC(c1ccccc1)C1C(C#N)=C(N)OC2=C1C(=O)CC(C)(C)C2 (stereo not drawn)	-56.9
O=C(Cn1ncc2c(=O)oc3ccccc3c21)N1CCN(c2ccccn2)CC1	-41
O=C(NCc1cccnc1)c1ccc(NS(=O)(=O)c2ccccc2)cc1	-15.8

Structure (SMILES)	hERG current change (%, negative = inhibition) at 10uM [%]
COc1ccc(Cn2c(=O)[nH]c3cc(C(=O)NCc4ccc5c(c4)OCO5)ccc3c2=O)cc1	14
CCOc1ccc(S(=O)(=O)NCCC(=O)NCc2cccnc2)cc1	4.31
O=C(CN1CCN(c2ccccc2)CC1)N1CCc2[nH]c3ccccc3c2C1	-26.9
O=C(Nc1ccc2c(c1)OCO2)N1CCN(c2ncccn2)CC1	-2.31
c1ccc(CSc2ncnc3sccc23)cc1	-16
CSc1cccc(NC(=S)N(CCN(C)C)C(C)c2ccncc2)c1 (stereo not drawn)	-50.6
Cc1ccc(Nc2ccncc2S(N)(=O)=O)cc1	-3.63
COCCN(C(=O)c1snc(C(N)=O)c1N)C(C(=O)NC1CCCCC1)c1ccc(N(C)C)cc1 (stereo not drawn)	-6.79
CCc1nc2sc(C#N)c(N)c2c2c1CCCC2	11.2
COc1ccccc1/C=C/C=N/NC(=O)c1cnccn1	13.5
COc1cc2ncnc(N[C@H](C)c3ccccc3)c2cc1OC	-14.8
CCCCCCc1ccc(N2C[C@H](CCCCC)[C@@H](CC(=O)NCc3ccc(OC)cc3)C2=O)cc1	-16.6
O=C(COC(=O)[C@H](Cc1ccccc1)NC(=O)c1cccs1)Nc1c(Cl)cccc1Cl	-8.03
Oc1cccc(/C=N/NP(=S)(c2ccccc2)c2ccccc2)c1	-7.93
Cc1c(C(=O)c2cccc(F)c2)c2ccccn2c1CCC#N	-2.51
COc1ccc([C@H]2CC(=O)C=C(c3ccc(C(=O)O)cc3)C2)cc1OC	1.78
CCCn1c(SCC(=O)c2c(N)n(C3CC3)c(=O)[nH]c2=O)nnc1-c1ccncc1	8.49
COCC(C)n1c(SCc2nc(N)nc(Nc3ccccc3C)n2)nc2ccccc2c1=O (stereo not drawn)	2.12
Cc1ccccc1C(=O)Nc1cccc(-c2nnc(SCC(=O)O)n2C)c1	11.4
Cc1ccc(S(=O)(=O)Nc2ccccc2)cc1C(=O)N1CCCC1	-4.95
C=CCN1C=C2C(=O)C(C)(OC(=O)CCc3ccccc3)C(=O)C=C2C=C1c1ccc(C#N)cc1 (stereo not drawn)	-28.8
Cc1ccc(C(=O)c2oc3ccccc3c2NC(=O)c2cc(-c3cc(C)ccc3O)n[nH]2)cc1	18.5

Structure (SMILES)	hERG current change (%, negative = inhibition) at 10uM [%]
O=C(COc1ccccc1)c1cn(Cc2ccccc2)c2ccccc12	7.62
N=c1c(C(=O)NCCc2ccccc2)cc2c(=O)n3ccccc3nc2n1CC1CCCO1 (stereo not drawn)	-90.7
COc1ccccc1NC(=O)Cn1c(=O)n(C)c(=O)c2sc3c(c21)COC(C)(C)C3	5.81
Cc1ccc(C(=O)Nc2ccc(S(=O)(=O)N3CCN(C)CC3)cc2)cc1	-12.7
Cc1nnc(Sc2cc(C(=O)NCCCN(C)Cc3ccccc3)c3ccccc3n2)s1	-56.2
CN(Cc1ccccc1)C(=O)c1ccc(NC(=O)Cc2cccc(NC(=O)C3CCCN(C(=O)C4CCCC4)C3)c2)cc1 (stereo not drawn)	5.82
Cc1cccc(C(=O)NC(=S)Nc2ccccc2C(=O)O)c1	6
CC(C)CCC(C(=O)O)C(C)CC(=O)NC1CCCCC1 (stereo not drawn)	-1.38
COc1ccc(S(=O)(=O)NCC(=O)N(CC(=O)NCC2CCCO2)c2ccccc2C)cc1 (stereo not drawn)	11
CCOC(=O)CSc1n[nH]c(=S)s1	7.03
COc1ccc(C(=O)NNC(=O)C(C)NC(=O)c2ccccc2NC(=O)c2ccco2)cc1 (stereo not drawn)	22.3
Cc1ccc(NS(=O)(=O)c2sc3ccc(Cl)cc3c2C)cc1	10.2
COC(=O)C1=C(C)NC(=O)NC1c1ccc2c(c1)OCO2 (stereo not drawn)	17.1
Cc1c(C=O)c(C=O)c(C)n1Cc1ccccc1	1.26
COc1c(C)cc(C(=O)C2CCCN(C(=O)C3=C(C)OCCO3)C2)cc1C (stereo not drawn)	-0.363
CN(Cc1cccs1)C(=O)c1ccc(S(=O)(=O)NCc2ccco2)cc1	-54.2
Cc1nnc(NC(=O)CN2CCN(Cc3ccccc3Cl)CC2)s1	6.08
Cc1cccc(NC(=O)c2nc(S(=O)(=O)Cc3ccccc3)ncc2Cl)c1	-3.97
CCc1ccccc1OCCCCCNCCO	-9.67
CC(C)CC(NC(=O)C1CCC(C)CC1)C(=O)NCc1cccnc1 (stereo not drawn)	-1.3
O=C1CCN(C(=O)Nc2cccc(Cl)c2)N1	14.1
